# PubChem BioAssay AID488969 (Vanderbilt High Throughput Screening Facility, 2010)
# In all, about 110,000 compounds were measured (“z-score”: median about -0.1, highest 2% from about 2 on). This is one part of the list.
# Molecular target: Metabotropic glutamate receptor 8 (Rattus norvegicus) (UniProt P70579)
# Experiment: rat mGluR8 modulators via GIRK flux, primary screen, cell-based, thallium flux, HTS (AID 488969)
# Conditions: HEK293 rat mGluR8, GIRK (G protein-gated inwardly rectifying potassium channel) thallium flux, FluoZin2; at 10 µM; stronger effect = higher value; submaximal glutamate (EC20) added with thallium
# UniProt P70579, sequence (P70579 whole entry, looked up): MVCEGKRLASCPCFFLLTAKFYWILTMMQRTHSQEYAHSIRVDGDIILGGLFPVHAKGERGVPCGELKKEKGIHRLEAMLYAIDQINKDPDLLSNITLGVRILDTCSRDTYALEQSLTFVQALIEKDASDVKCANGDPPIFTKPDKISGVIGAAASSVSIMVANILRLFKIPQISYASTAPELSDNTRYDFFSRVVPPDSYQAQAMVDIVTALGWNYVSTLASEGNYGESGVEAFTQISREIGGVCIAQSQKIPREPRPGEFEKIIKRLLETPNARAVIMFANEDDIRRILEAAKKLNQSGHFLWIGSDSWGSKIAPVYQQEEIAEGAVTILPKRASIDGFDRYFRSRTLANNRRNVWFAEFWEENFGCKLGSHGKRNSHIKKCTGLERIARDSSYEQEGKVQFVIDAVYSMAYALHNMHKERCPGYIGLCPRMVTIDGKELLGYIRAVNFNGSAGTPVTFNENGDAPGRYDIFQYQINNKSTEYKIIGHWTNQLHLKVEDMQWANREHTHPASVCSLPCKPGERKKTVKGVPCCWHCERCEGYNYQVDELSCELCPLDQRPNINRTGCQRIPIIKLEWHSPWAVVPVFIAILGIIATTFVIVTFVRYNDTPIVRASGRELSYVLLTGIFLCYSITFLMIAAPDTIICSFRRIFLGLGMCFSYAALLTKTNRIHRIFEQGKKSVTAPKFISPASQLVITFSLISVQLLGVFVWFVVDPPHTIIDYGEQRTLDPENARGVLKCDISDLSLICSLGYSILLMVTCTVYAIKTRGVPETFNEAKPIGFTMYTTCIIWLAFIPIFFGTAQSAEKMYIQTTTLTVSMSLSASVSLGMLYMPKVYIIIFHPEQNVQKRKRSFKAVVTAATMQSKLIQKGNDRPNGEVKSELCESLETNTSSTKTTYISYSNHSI
row,SMILES,z-score
1,CCOC(=O)C1(c2ccccc2)NC(c2ccccc2C)C2C(=O)N(c3ccc4c(c3)OCO4)C(=O)C21 (centres undefined),-0.234
2,COc1cc(C(=O)NC2(C(F)(F)F)NC(=O)N(CCCc3ccccc3)C2=O)cc(OC)c1OC (centres undefined),-0.372
3,Cc1ccc(-n2nnc3c(=O)n(CC(=O)OCc4ccccc4)cnc32)cc1,-0.146
4,CCOC(=O)C1CCN(C(c2cc3c(C)ccc(C)c3[nH]c2=O)c2nnnn2C2CCCCC2)CC1 (centres undefined),-0.505
5,COC(=O)[C@@H](NC(=O)NCc1ccccc1Cl)C(C)C,0.128
6,Brc1ccccc1-c1nnc(SCc2nc3ccccc3s2)o1,-0.488
7,NCc1cccc(-n2cccn2)c1,-0.158
8,COc1c(C)cccc1C(=O)Nc1cc(-c2nn3c(C)nnc3s2)ccc1C,-1.6
9,O=C(Nc1ccc(N2CCN(C(=O)c3ccc(Cl)cc3)CC2)cc1)c1cccnc1,-0.409
10,O=C(NC(=S)Nc1ccccc1N1CCCCC1)c1ccc(-c2cccc([N+](=O)[O-])c2)o1,0.681
11,CCCc1[nH]nc2c1C(c1cccc(OC(=O)c3ccco3)c1)C(C#N)=C(N)O2 (centres undefined),-0.145
12,OC1CCN(c2c3c(nc4cc(-c5ccc(Cl)cc5)nn24)CCC3)CC1,-0.738
13,CC(=O)N1N=C(c2ccccc2)OC1(C)CC(=O)Nc1ccccc1 (centres undefined),-0.0519
14,O=C(NCc1ccccc1)c1ccc(CS(=O)(=O)c2ccccc2)o1,-0.0853
15,O=C(O)CCCNS(=O)(=O)c1ccc2c(c1)OCCCO2,-0.11
16,CCn1cc(C(=O)NC2CCCCC2)c(=O)c2ccc(C)nc21,-0.484
17,COc1ccc(-c2nc3c(c(=O)c4ccccc4n3C)c(=O)n2Cc2ccccc2)cc1,-0.433
18,Cc1cccc2cc(CN(Cc3nnnn3C3CCCC3)C3CCCCC3)c(=O)[nH]c12,-0.825
19,N#CCCn1c(SCC(=O)c2c[nH]c3ccccc23)nc2ccccc21,-0.698
20,Cc1nnc(C)n1/N=C/c1ccc(-c2ccccc2)cc1,-0.447
21,OCCN1CCN(Cc2cc(Cl)c3cccnc3c2O)CC1,0.225
22,Cc1cc(C(=O)c2ccccc2)c(NC(=O)CN2CCOCC2)s1,-0.12

row,SMILES,z-score
1,CC(=O)N(C)c1ccc(NC(=O)c2ccco2)cc1,0.411
2,CC1(C)CC(=O)C2=C(C1)N(c1ccccc1)C(=O)C2(O)C(F)(F)F (centres undefined),-0.202
3,Cc1ccc(-c2cc(C(F)F)nc(NCC3CCCO3)n2)cc1 (centres undefined),-0.621
4,CCn1ccc(C(=O)NC2C(=O)N3C(C(=O)O)=C(C)CSC23)n1 (centres undefined),0.567
5,Cc1cc(OCc2cc3c(cc2Cl)OCO3)c2c(C)cc(=O)oc2c1,-0.0238
6,COc1ccc(CCN2CN(S(=O)(=O)c3ccccc3)c3nc4ccccc4nc32)cc1,-0.221
7,CCc1ccc(CN/C=C/C(=O)c2ccc(Br)cc2)cc1,-0.162
8,O=C(O)c1cccc(Cn2cccn2)c1,-0.187
9,Cc1ccc(-n2nnnc2SCc2nnc(-c3ccccc3Br)o2)cc1,-0.671
10,Fc1ccccc1NC(=S)N1CCCCC1,-0.215
11,COc1ccc(C)cc1S(=O)(=O)N1c2ccccc2CC1C (centres undefined),-0.386
12,O=C(NNS(=O)(=O)c1ccc(Cl)cc1)C1CCN(Cc2ccccc2)CC1,-1.27
13,CCc1nc2c(cnn2-c2ccc(Cl)cc2)c(=O)n1-c1ccc(OC)cc1,-0.382
14,CCOCCCNC(=O)c1ccc2c(c1)N(Cc1ccccc1)C(=O)CS2=O (centres undefined),-0.265
15,CC12CCC(c3nnc(SCC(=O)Nc4cccc5ccccc45)nc31)C2(C)C (centres undefined),-0.149
16,CCSc1nnc(NC(=O)c2cc(C)nc3ccccc23)s1,0.31
17,Cc1cccc(-c2c3c(=O)n(C)c(=O)n(C)c3c3cccnn23)c1,-0.457
18,Cc1ccc(-c2cc(C(=O)Nc3cccnc3)c3ccccc3n2)o1,-0.197
19,Cc1ccc(CN2CCN(/N=C/c3cc(Br)cc(Br)c3O)CC2)c(C)c1,0.641
20,CC(NC(=O)C1(C)CC1(Br)Br)C(C)(C)C (centres undefined),-0.211
21,O=C(CCNC(=O)c1ccccc1Cl)Nc1ccc(Cl)c(C(F)(F)F)c1,-0.134
22,CCOC(=O)N1CCN(C(=O)CNC(=O)Cc2ccc(Cl)cc2)CC1,-0.245

row,SMILES,z-score
1,CCCN(CC1CC1)c1nc(N)c(C#N)c(CC#N)c1C#N,-0.607
2,CCOC(=O)CC1NC(=O)c2ccccc21 (centres undefined),0.524
3,CCOc1ccccc1N1CCN(C(=O)c2ccc3[nH]c4c(c3c2)CCCC4)CC1,-0.284
4,COc1ccc(S(=O)(=O)Cc2ccc(C(=O)NCCCN3CCc4ccccc4C3)o2)cc1,0.188
5,O=C(CSc1nnc(-c2ccccc2)c(-c2ccccc2)n1)NCc1ccco1,-1.95
6,c1ccc(Oc2cccc(OCCCCN3CCCC3)c2)cc1,-0.416
7,O=c1cc(O)c2sc3nc(-c4ccccc4)cc(C(F)(F)F)c3c2[nH]1,-1.89
8,COc1ccc(OC)c(NC(=O)c2cnn(-c3ccccc3Cl)c2NC(=O)c2ccco2)c1,-0.296
9,CCOC(=O)c1ccc(N/C=C/C(=O)c2ccc(OC)cc2)cc1,-0.762
10,CC(=O)c1cccc(S(=O)(=O)NC2CC2)c1,-0.145
11,CCCC(CCC)n1[nH]c(=O)c2c(C)cc(C)nc21,0.0117
12,CC(=O)NC(CC(=O)NC1CCCCC1)c1ccccc1 (centres undefined),-0.125
13,c1ccc(-c2nc(-c3ccccn3)no2)cc1,-1.16
14,COC(=O)c1ccccc1OCCOc1ccccc1C(=O)OC,-0.901
15,Cc1ccc(OC(=O)c2cc3ccccc3o2)cc1,1.63
16,C=CCn1c(SCC(=O)/C(C#N)=C(\C)N)nc2sc(CC)cc2c1=O,-0.441
17,O=C(COc1ccc2ccccc2c1Br)Nn1cnnc1,-0.0301
18,CCCCOc1ccc(CSC2=NCCN2)cc1[N+](=O)[O-],0.44
19,COc1ccc(OC)c(NC(=O)Cc2coc3ccc(C)cc23)c1,-0.0955
20,O=C(Cn1c(=O)n(Cc2ccco2)c(=O)c2cc(Cl)ccc21)NCC1CCCO1 (centres undefined),0.0105
21,O=C(NC1CCCC1)C(c1ccncc1)N(Cc1ccccc1)C(=O)Cc1cccs1 (centres undefined),-0.175
22,CCC(=O)n1nc(-c2ccc(Cl)cc2)nc1NCc1ccccc1,0.237

row,SMILES,z-score
1,O=C(N/N=C/c1ccccc1)c1ccc(CN2C(=O)c3cccc4cccc2c34)cc1,-0.149
2,O=C(COC(=O)CN1C(=O)C(=O)c2ccccc21)OCN1C(=O)c2ccccc2C1=O,-0.0392
3,O=C(Cc1ccc(Cl)cc1)Nc1ccc(-c2nnc(-c3ccco3)o2)cc1,-0.191
4,Clc1ccc(-n2nnnc2-c2cnc(-c3ccncc3)nc2-c2cccs2)cc1,-0.676
5,COc1ccc(OC)c(S(=O)(=O)Nc2cnc3ccccc3c2)c1,-0.244
6,Cc1ccc(S(=O)(=O)C2(C(=O)Nc3cccnc3)CC2)cc1,-0.0438
7,Nc1ccc(Br)cc1C(=O)O,0.0923
8,C/C(=C\C(=O)c1ccc(Br)cc1)Nc1cccc(Cl)c1,0.0464
9,CC(/C=N/NC(=O)c1cc(C(C)(C)C)[nH]n1)=C\c1ccccc1,-0.572
10,N=C1CCCN1CC(=O)c1ccc(Cl)cc1,0.073
11,COc1ccc(S(=O)(=O)Cc2ccc(C(=O)NCc3cccs3)o2)cc1,0.0328
12,COc1ccc(/C=N/Nc2nc(-c3ccc(Cl)cc3)cc(C(F)(F)F)n2)cc1OC,-0.203
13,COc1ccc(-n2c(C)nnc2SCC(=O)N2C(C)CCCC2C)cc1 (centres undefined),0.00573
14,CCCN1Cc2cccc(C(=O)Nc3ccc4c(c3)OCCO4)c2C1=O,-0.798
15,CCCCn1nnnc1SCC(=O)Nc1ccc2c(c1)OCCO2,-0.304
16,COc1ccc(CCNS(=O)(=O)c2cn(C)c(=O)n(C)c2=O)cc1,1.08
17,CC(C)NC(=O)c1cc(-c2cccs2)on1,0.689
18,COc1ccc(Cl)cc1NC(=S)N1CCN(C(=O)c2ccco2)CC1,0.159
19,O=C(Nc1ncc2c(n1)CC(c1ccccc1)CC2=O)c1ccco1 (centres undefined),-0.0151
20,CC(NC(=O)COc1ccc(Oc2ccccc2)cc1)C(=O)O (centres undefined),-2.05
21,C/C(=N\NC(=O)C1CC1)c1ccc(Cl)c(Cl)c1,-0.0353
22,Cc1ccc([N+](=O)[O-])cc1NC(=S)NC(=O)CC(C)(C)C,0.834

row,SMILES,z-score
1,O=C(CN1CCCC1=O)NC1(C(F)(F)F)NC(=O)N(Cc2ccccc2)C1=O (centres undefined),-0.208
2,CCOC(=O)c1sc(C)c2c(=O)n(CC(=O)c3ccc(Br)cc3)nnc12,0.149
3,COc1ccc(N2CCN(c3ccc(N)cc3C#N)CC2)cc1,0.0332
4,Cc1noc(C)c1CN1C(=O)NC2(CCc3ccccc3C2)C1=O (centres undefined),-0.622
5,COc1ccc(-n2c(Cc3cc(=O)[nH]c(=O)[nH]3)nnc2SCC(=O)NC2CCCC2)cc1,0.273
6,O=C(CCl)Oc1ccc2occ(C(=O)c3cccs3)c2c1,-0.0454
7,CCOC(=O)c1ccccc1NC(=O)CSc1ccccc1,-0.48
8,O=C(c1ccccc1)N1CCN(C2c3cccc4cccc(c34)C2NS(=O)(=O)c2ccccc2)CC1 (centres undefined),-0.444
9,Cc1ccc(-n2c(C)nnc2SCC(=O)N2CCc3ccccc3C2)cc1,-0.994
10,COCC(=O)Nc1c(C(=O)Nc2ccccc2OC)oc2ccccc12,-0.342
11,Cc1cc(C)c(NS(=O)(=O)c2ccc3c(c2)NC(=O)CC(=O)N3)c(C)c1,-0.205
12,Cc1cc(C)cc(C(=O)N2CCC(C(N)=O)CC2)c1,-0.46
13,CCOc1ccc(N2C(=O)CC(N(CCc3ccc(OC)cc3)C(=O)c3cccc(F)c3)C2=O)cc1 (centres undefined),-0.319
14,CCOC(=O)CNc1ccc(C(=O)OCC)cc1[N+](=O)[O-],-0.536
15,O=C(Nc1cc(C(F)(F)F)ccc1N1CCOCC1)c1c(F)c(F)c(F)c(F)c1F,0.309
16,O=C(CCN1C(=O)c2ccccc2C1=O)Nc1ccc(S(=O)(=O)NC2=NCCCCC2)cc1,0.0925
17,Cc1nnnn1/C(=C\c1ccccc1)C(=O)OCC(=O)N1CC2(C)CC1CC(C)(C)C2 (centres undefined),-0.201
18,O=C(/C=C/c1ccc2c(c1)OCO2)NCCSCc1ccc(Cl)cc1Cl,-0.409
19,CCN(CC)C(=O)CN(C)S(=O)(=O)c1cccc2nsnc12,-0.307
20,COc1cc(/C=N/NC(=O)C(=O)Nc2ccccn2)ccc1O,-0.198
21,COc1cccc(/C=N/NC(=O)CC(=O)NCCc2ccc(OC)c(OC)c2)c1,-0.018
